From publication PMC4336329 (PLoS ONE, 2015) come the findings set out here.

The campaign covered roughly 310,000 compounds. About 14,000 (4.5%) showed an effect of 50% or more. The effect is printed as a negative number. Some of the results follow.
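Note: peak tail current of the secondary pulse compared with the same well before compound.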

The experiment deals with human ether-à-go-go-related gene (hERG) potassium channel (human, UniProt Q12809). In words: primary screen, population patch clamp on CHO cells stably expressing hERG.
human ether-à-go-go-related gene (hERG) potassium channel, sequence (Q12809 whole entry, looked up): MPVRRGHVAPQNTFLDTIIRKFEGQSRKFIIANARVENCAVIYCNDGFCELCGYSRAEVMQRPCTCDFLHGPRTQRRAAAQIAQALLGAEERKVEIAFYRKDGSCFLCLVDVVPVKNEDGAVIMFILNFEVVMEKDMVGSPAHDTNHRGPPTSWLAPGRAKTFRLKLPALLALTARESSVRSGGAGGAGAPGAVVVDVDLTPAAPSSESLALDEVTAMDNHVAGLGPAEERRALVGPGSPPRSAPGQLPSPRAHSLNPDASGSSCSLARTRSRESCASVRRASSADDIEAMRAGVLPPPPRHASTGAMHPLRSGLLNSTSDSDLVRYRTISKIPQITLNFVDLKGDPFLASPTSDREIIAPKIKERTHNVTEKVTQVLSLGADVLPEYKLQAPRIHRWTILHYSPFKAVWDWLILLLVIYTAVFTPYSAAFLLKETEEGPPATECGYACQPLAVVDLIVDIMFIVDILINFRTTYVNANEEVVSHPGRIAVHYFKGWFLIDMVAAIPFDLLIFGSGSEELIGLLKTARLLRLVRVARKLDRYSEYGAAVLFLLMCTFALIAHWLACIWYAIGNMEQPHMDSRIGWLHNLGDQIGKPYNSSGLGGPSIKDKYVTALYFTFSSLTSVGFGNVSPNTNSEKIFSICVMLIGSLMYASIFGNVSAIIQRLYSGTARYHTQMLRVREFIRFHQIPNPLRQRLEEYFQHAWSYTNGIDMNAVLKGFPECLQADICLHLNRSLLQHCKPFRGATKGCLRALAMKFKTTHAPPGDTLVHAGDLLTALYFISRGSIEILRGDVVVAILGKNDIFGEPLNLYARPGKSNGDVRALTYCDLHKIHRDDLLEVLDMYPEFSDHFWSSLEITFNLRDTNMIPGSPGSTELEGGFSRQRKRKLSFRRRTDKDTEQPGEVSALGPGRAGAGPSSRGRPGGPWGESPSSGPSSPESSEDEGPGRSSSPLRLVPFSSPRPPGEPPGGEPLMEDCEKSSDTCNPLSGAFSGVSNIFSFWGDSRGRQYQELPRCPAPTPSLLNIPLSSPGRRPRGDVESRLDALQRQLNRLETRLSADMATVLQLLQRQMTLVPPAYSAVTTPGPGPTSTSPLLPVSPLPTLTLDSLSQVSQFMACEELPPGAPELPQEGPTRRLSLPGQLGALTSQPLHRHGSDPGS
`CC1CCN(CCCNC(=O)c2coc3nc4ccccc4nc23)CC1`: the “hERG current change (%, negative = inhibition) at 10uM” value was -10.1%. In the case of `CSCCC(NC(=O)c1ccccc1Br)C(=O)NCC(C)(C)N1CCOCC1` (stereo not drawn) it was -13.8%; in that of `Cc1ccc(-c2nnc(N3CCCCC3)c3ccccc23)cc1`, -11.2%; in that of `CN(Cc1nnc(-c2ccc(F)cc2)o1)c1ccccc1`, -6.15%.

For the compound `COc1ccc(-n2nc(C(=O)NCC(=O)Nc3cc(OC)ccc3OC)c3ccccc3c2=O)cc1`, the “hERG current change (%, negative = inhibition) at 10uM” value is reported as 15.1%. In the case of `COc1ccc(NC(=O)CC2Nc3cccc4cccc(c34)NC2=O)cc1` (stereo not drawn) it was -16%; in that of `Nc1ccn(Cc2ccccc2)n1`, -19.4%; in that of `CC12CCC(C(=O)NNc3ccc([N+](=O)[O-])cc3)(CC1=O)C2(C)C` (stereo not drawn), 0.48%. Take `Cc1ccnc2nc(C(=O)OCC(=O)N(CC(C)C)CC(C)C)nn12`: the “hERG current change (%, negative = inhibition) at 10uM” value is given as 15.5%. Take `COc1cc(NC(=O)C2CCN(S(=O)(=O)c3ccc4c(c3)CC(C)N4C(C)=O)CC2)cc(OC)c1OC` (stereo not drawn): the “hERG current change (%, negative = inhibition) at 10uM” value was determined as 4.47%.

Take `CCSc1ccccc1C(=O)Nc1cc(OC)c(OC)c(OC)c1`: the “hERG current change (%, negative = inhibition) at 10uM” value is reported as -2.86%. Turning to `COc1cc(/C=N/NC(=O)CNC(=O)c2ccco2)ccc1O`, the “hERG current change (%, negative = inhibition) at 10uM” value was determined as 7.95%.

`Cc1ccc(CN2C(=O)CCC2C(=O)N2CCN(c3ccc(F)cc3)CC2)cc1` (stereo not drawn): the “hERG current change (%, negative = inhibition) at 10uM” value is -28.1%.

On to `CN(Cc1ccccc1)c1ccc(N2C(=O)CCC2=O)cc1[N+](=O)[O-]`, for which the “hERG current change (%, negative = inhibition) at 10uM” value is on record as -5.55%. Then `C/C(=N/NC(=O)c1ccc(Cl)cc1Cl)c1cccnc1`, with 16.4%. Then `CO/N=C/c1ccc(N2CCN(C(=O)c3ccc(Cl)cc3Cl)CC2)c([N+](=O)[O-])c1`, with -53.1%. Then `Cc1cc(/C=N/NC(=O)c2ccc(O)cc2)c(C)n1CC(C)C`, with -9.91%; and `Nc1nc2ccc(N3CCOCC3)cc2s1`, with -9.29%.

For the compound `CCOP(=O)(/C=C(\Cl)c1ccccc1)C(O)c1ccc(F)cc1` (stereo not drawn), the “hERG current change (%, negative = inhibition) at 10uM” value amounted to 6.68%. Then `COc1cccc(/C=C/C(=O)Nc2ccc3[nH]c(=O)[nH]c3c2)c1`, with 7.9%. In the case of `CC1(NC(=S)NCCCCCCNC(=S)NC2(C)CCS(=O)(=O)C2)CCS(=O)(=O)C1` (stereo not drawn) it was 17.1%.

Turning to `CCOCCCNC(=O)C1(O)c2ccccc2NC(=O)N1c1ccc(Cl)cc1` (stereo not drawn), the “hERG current change (%, negative = inhibition) at 10uM” value was found to be 11.8%.

In the case of `COc1cc(/C=C2\SC(=S)N(C(Cc3ccccc3)C(=O)O)C2=O)ccc1O` (stereo not drawn), the “hERG current change (%, negative = inhibition) at 10uM” value was found to be 8.15%. For `CN1CCN(C(=O)c2cc3ccccc3cc2O)CC1`, the “hERG current change (%, negative = inhibition) at 10uM” value was found to be 3.98%.

On to `CC(C)(C)CC(C)(C)Nc1c(-c2ccc(O)cc2)nc2cnccn12`, for which the “hERG current change (%, negative = inhibition) at 10uM” value is 3.97%. As for `CCOc1ccc(C(=O)OC(C)CN2CCCCC2)cc1.Cl` (stereo not drawn), the “hERG current change (%, negative = inhibition) at 10uM” value is -29%.

As to `C=CCNc1nc(N)c(C(=C(C#N)C#N)c2ccccc2)s1`, the “hERG current change (%, negative = inhibition) at 10uM” value came out at 12.4%.

As for `COc1ccc(S(=O)(=O)N2CCc3ccccc32)cc1OC`, the “hERG current change (%, negative = inhibition) at 10uM” value is on record as -9.6%.

For the compound `Cc1nn(CC(=O)N2c3ccccc3NC(=O)C2(C)C)c(C)c1[N+](=O)[O-]`, the “hERG current change (%, negative = inhibition) at 10uM” value is on record as 6%. Regarding `NC(=O)c1oc2ccccc2c1NC(=O)CCc1ccccc1`, the “hERG current change (%, negative = inhibition) at 10uM” value is -3.11%. Turning to `Cc1cc(C)c(-c2c(O)c3cnn(-c4ccccc4)c3[nH]c2=O)c(C)c1`, the “hERG current change (%, negative = inhibition) at 10uM” value was 8.37%. In the case of `COc1cc2[nH]cc(C(=O)NCc3cccs3)c(=O)c2cc1OC` it was 1.86%; in that of `CC(=O)N(C)c1ccc(NCc2cc(=O)oc3cc(C)c(O)cc23)cc1`, -6.24%; in that of `Nc1nc(C2CCCN2S(=O)(=O)c2ccc(Cl)cc2)cs1` (stereo not drawn), -3.42%. On to `O=C(O)c1c[nH]c2c(C(F)(F)F)cccc2c1=O`, for which the “hERG current change (%, negative = inhibition) at 10uM” value is given as -1.62%.

With `O=C(NCc1ccco1)C1CCN(C(=O)c2ccc(Cl)cc2Cl)CC1`, the “hERG current change (%, negative = inhibition) at 10uM” value is given as -0.217%. Consider `O=C(Nc1ccc(Cl)cc1)N(Cc1cccnc1)Cc1ccco1`, for which the “hERG current change (%, negative = inhibition) at 10uM” value was -63.9%.

As for `Cc1cc(C)cc(N2C(=O)CC(N(C(=O)c3ccco3)c3cc(C)cc(C)c3)C2=O)c1` (stereo not drawn), the “hERG current change (%, negative = inhibition) at 10uM” value is listed as 12.8%. As to `Cc1ccc(C(=O)Nn2cnnc2)c(Cl)c1`, the “hERG current change (%, negative = inhibition) at 10uM” value was 20%. In the case of `O=[N+]([O-])c1ncccc1OCc1ccccc1Br`, the “hERG current change (%, negative = inhibition) at 10uM” value was 8.6%. Then `CCOc1ccc(Nc2nc(N)nc(CN3CCN(c4ccccc4F)CC3)n2)cc1`, with -80.8%; and `CC1CCCC(NC(=O)COC(=O)c2cccs2)C1C` (stereo not drawn), with -1.8%. In the case of `Cc1onc(-c2ccccc2Cl)c1C(=O)Nc1ccc(-n2nncc2C(C)(C)C)cc1` it was 4.1%; in that of `CCCC(C(=O)NC1CCCC1)N(Cc1ccccc1Cl)C(=O)c1snc(C(N)=O)c1N` (stereo not drawn), 12%; in that of `O=C(N/N=C/c1c(O)n(Cc2ccc(F)cc2)c(=O)[nH]c1=O)c1ccccc1`, -3.17%. Consider `CCc1c(C(=O)Nc2cc(C(=O)OC)ccc2C)csc1C`, for which the “hERG current change (%, negative = inhibition) at 10uM” value stood at 8.22%. Then `Cc1nn(C)cc1CN(C)C(=O)c1ccc(OC2CCN(Cc3ccccn3)CC2)cc1`, with 8.65%. In the case of `O=C(N/N=C/c1ccco1)c1cc(-c2ccccc2)n[nH]1` it was -12.6%. In the case of `Cc1ccc(N(CC(=O)NCc2ccccc2Cl)S(=O)(=O)c2c(C)noc2C)cc1` it was 22.4%; in that of `O=C(Nc1ccc(N2CCOCC2)cc1)C1CCN(C(=O)OCc2ccccc2)CC1`, 15.2%; in that of `Cc1sc2ncn(CC(=O)NCC(=O)N(C)C3CCCCC3)c(=O)c2c1C`, -18.2%.

For `CC(C)CNC(=O)c1ccccc1NC(=O)CCSc1ccccc1`, the “hERG current change (%, negative = inhibition) at 10uM” value is listed as -17.6%. For the compound `O=C(Oc1ccc(N(Cc2cccs2)C2=NS(=O)(=O)c3ccccc32)cc1)c1ccccc1`, the “hERG current change (%, negative = inhibition) at 10uM” value is recorded as -8.58%.

For the compound `CC1Cc2ccccc2N1CC(=O)Nc1ccc(Cl)c(S(=O)(=O)N(C)C)c1` (stereo not drawn), the “hERG current change (%, negative = inhibition) at 10uM” value is on record as -1.59%. Then `CCN(CC)CCCNC(=O)c1cn(C)c(=O)c2c1c1ccccc1n2C`, with 10.1%; and `COc1ccc(OC)c(-c2csc(NC(=O)COC(=O)c3ccc(NC(=O)CC#N)cc3)n2)c1`, with 14.5%; and `CCCCOc1ncnc2c1[nH]c1ccc(OC)cc12`, with 15%. In the case of `CC(=O)C(=[N+]=[N-])C(=O)NCc1ccccc1` it was 11.3%; in that of `O=C(O)CSc1nnc(-c2ccccc2Br)n1-c1cccc(C(F)(F)F)c1`, 15.6%.

Consider `COc1cc(S(=O)(=O)N2CCN3CCCC3C2)ccc1-n1cnnn1` (stereo not drawn), for which the “hERG current change (%, negative = inhibition) at 10uM” value is 2.05%. Then `Cc1ccc(CSCCNC(=O)CN2C(=O)c3ccccc3S2(=O)=O)cc1`, with 2.49%; and `CC(C)c1[nH]nc2c1C1(CCN(Cc3ccccc3)CC1)C(C#N)=C(N)O2`, with -25.5%; and `CN(C(=O)COC(=O)c1ccccc1NC(=O)c1ccco1)C1CCS(=O)(=O)C1` (stereo not drawn), with -62.3%. Consider `O=C(C1CCN(c2nnc(-n3cccc3)s2)CC1)N1CCCCC1`, for which the “hERG current change (%, negative = inhibition) at 10uM” value is -6.55%.

Turning to `CCOCCCNS(=O)(=O)c1ccc(NC(=O)Cc2c(F)cccc2Cl)cc1`, the “hERG current change (%, negative = inhibition) at 10uM” value was determined as 3.38%. In the case of `CCNC(=S)N1CCn2cccc2C1c1cccnc1` (stereo not drawn) it was -17.1%; in that of `CC(=O)OC1N=C(c2ccc(Cl)cc2)c2cc(Br)ccc2NC1=O` (stereo not drawn), -55%; in that of `Cc1c(NC(=O)c2ccc(N3CCCC3)c([N+](=O)[O-])c2)cccc1-c1nc2ccccc2s1`, 6.37%.

For `Cc1nn(-c2ccccc2)c(=O)c2ccccc12`, the “hERG current change (%, negative = inhibition) at 10uM” value came to 25.3%. In the case of `CCn1ccnc1CN1CCc2c([nH]c3ccccc23)C1C1CCCCC1` (stereo not drawn) it was -19.4%.

In the case of `CCO[C@H]1OC(C(=O)N2CCN(C)CC2)=C[C@@H](C2CC2)[C@@H]1CCCO`, the “hERG current change (%, negative = inhibition) at 10uM” value amounted to 15.4%.

In the case of `CC(NC(=O)C(=O)N/N=C/c1ccccc1)c1ccccc1` (stereo not drawn), the “hERG current change (%, negative = inhibition) at 10uM” value is recorded as 25.8%. Then `COc1cccc(CN=CC2=C(O)CC(C)(C)CC2=O)c1OC`, with 2.05%.

In the case of `Cc1ccc(S(=O)(=O)Nc2cccc3cccnc23)c([N+](=O)[O-])c1`, the “hERG current change (%, negative = inhibition) at 10uM” value stood at 8.38%. In the case of `O=C(Nc1csnn1)c1csnn1` it was 26.4%; in that of `Cc1ccc(C(=O)NNC(=O)c2ccc(SCC3CCCO3)c([N+](=O)[O-])c2)cc1` (stereo not drawn), -5.06%. Turning to `CCC(C)NC(=O)C1c2cc(OC)c(OC)cc2C(=O)N(C)C1c1ccc(OC)cc1` (stereo not drawn), the “hERG current change (%, negative = inhibition) at 10uM” value is listed as -6.17%.

On to `CC(NC(=O)COC(=O)c1ccc2c(c1)OCO2)c1ccccc1` (stereo not drawn), for which the “hERG current change (%, negative = inhibition) at 10uM” value is 6.03%.

For the compound `Cc1ccc(C)c(SCC(=O)OCC(=O)NCc2ccccc2)c1`, the “hERG current change (%, negative = inhibition) at 10uM” value turned out to be 18.4%. Then `Cc1ccc(Cl)cc1NC(=O)C1CCCN(c2cnccn2)C1` (stereo not drawn), with -23.1%; and `CCN(CC)S(=O)(=O)c1ccc(Cl)c(NC(=O)COC(=O)c2ccc(O)cc2)c1`, with -21.4%; and `Cc1ccc(NS(=O)(=O)c2csc(C(N)=O)c2)c(C)c1`, with 32.1%.

In the case of `COc1ccc(C(=O)NCC(=O)N/N=C/C=C/c2ccccc2)cc1OC`, the “hERG current change (%, negative = inhibition) at 10uM” value is given as -93.6%.

As for `O=C(c1ccncc1)N(c1ccc2oc3c(c2c1)CCCC3)S(=O)(=O)c1cccc([N+](=O)[O-])c1`, the “hERG current change (%, negative = inhibition) at 10uM” value worked out at 3.25%.

As to `O=C(COC(=O)Cc1c(F)cccc1Cl)NC(=O)c1ccccc1`, the “hERG current change (%, negative = inhibition) at 10uM” value was determined as 15.3%. In the case of `C=CCn1c(SCC(=O)O)nnc1-c1ccccc1` it was -3.24%; in that of `CC1=C2[C@H]3OC(=O)[C@@H](C)[C@@H]3CC[C@@]2(C)C=CC1=O`, 9.85%.
